Results reported in the supplement of paper PMC12217912.
The list shows a part of the results. The full chains were built here from the parent and the listed change. Values near 0.05 are background.

B1: TEV protease; numbered along this chain (parent)
chain: MGESLFKGPRDYNPISSSICHLTNESDGHTTSLYGIGFGPFIITNKHLFRRNNGTLVVQSLHGVFKVKDTTTLQQHLVDGRDMIIIRMPKDFPPFPQKLKFREPQREERICLVTTNFQTKSMSSMVSDTSCTFPSGDGIFWKHWIQTKDGQCGSPLVSTRDGFIVGIHSASNFTNTNNYFTSVPKNFMELLTNQEAQQWVSGWRLNADSVLWGGHKVFMVKPEEPFQPVKEATQL

Variants of: B1
Test: raw area under fraction-flipped curve 0-4 h after induction (AUC4h, not background-subtracted), DNA-recorder readout of cleavage of the substrate (dimensionless); higher = more cleavage of the substrate by the protease variant
Settings: temperature: 34 °C; time window: 0-4 h after rhamnose induction
Protocol: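 In vivo DNA recorder in E. coli TOP10(DE3) ΔrhaA at 34 °C. Each TEVp single-site mutant (parent TEVp 0) is paired with a single-site variant of the 7-mer TEVs (canonical ENLYFQ|S). The substrate sits between flexible linkers in a Bxb1-sfGFP-TEVs-SsrA fusion, so cleavage stabilises Bxb1 and speeds flipping of a recombination array, read by NGS. The value is the raw area under the fraction-flipped curve over 0-4 h after rhamnose induction (AUC4h), with ≥20 reads per time point. It is not background-subtracted; inactive controls average about 0.047.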
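Also: Bxb1 expression induced with 0.2% (w/v) L-rhamnose at OD600 near 0.5, cultures sampled hourly, flipped fraction per protease–substrate barcode pair counted by paired-end Illumina sequencing.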

Variant | area with substrate ENLAFQS | area with substrate ENLCFQS | area with substrate ENLFFQS | area with substrate ENLIFQS | area with substrate ENLKFQS | area with substrate ENLSFQS | area with substrate ENLVFQS | area with substrate ENLDFQS | area with substrate ENLGFQS | area with substrate ENLHFQS
G138M | 0.0734 | 0.0601 | 0.0716 | 0.0751 | 0.0461 | 0.0663 | 0.0818 | – | – | –
W141F | 0.0545 | 0.0564 | 0.0778 | – | 0.0772 | 0.0542 | 0.0806 | 0.0563 | 0.0691 | 0.0611
K142N | 0.0604 | – | – | – | 0.0726 | – | 0.0782 | 0.0594 | – | 0.0651
I145G | 0.052 | – | 0.0724 | – | 0.0826 | – | – | 0.0674 | – | 0.0895
K148L | 0.0685 | – | 0.0904 | – | 0.0779 | 0.0501 | – | 0.0571 | – | –
D149P | 0.0697 | – | – | – | 0.0654 | – | 0.0835 | 0.0461 | – | 0.0707
G153C | 0.0525 | – | – | – | – | – | – | 0.0448 | – | –
S154D | 0.064 | – | 0.0383 | – | 0.0743 | – | – | – | 0.0485 | –
P155G | 0.0525 | – | 0.0564 | – | 0.0526 | – | 0.0691 | 0.0585 | – | 0.0859
S158E | 0.0522 | – | 0.059 | – | – | 0.0601 | – | – | – | –
S158V | 0.0546 | 0.0688 | 0.051 | – | 0.0658 | 0.0556 | – | 0.0582 | – | 0.0514
D161G | 0.0678 | 0.0481 | 0.0714 | 0.113 | 0.069 | 0.0616 | – | 0.064 | 0.0429 | 0.06
F163N | 0.0586 | – | 0.0996 | 0.0835 | – | – | – | 0.0733 | – | –
I164V | 0.0689 | 0.0647 | – | – | 0.0669 | – | – | – | – | –
A170E | 0.0995 | 0.0632 | – | 0.0754 | – | – | – | – | – | 0.0301
S171Y | 0.0683 | 0.051 | – | – | 0.0555 | 0.0796 | – | 0.0617 | 0.0603 | 0.0653
N172P | 0.0763 | – | – | – | – | – | – | 0.0444 | – | 0.0762
N172Q | 0.0583 | – | – | – | – | – | – | – | – | –
T174G | 0.062 | 0.0705 | 0.0784 | 0.07 | 0.0657 | – | – | 0.0646 | – | 0.0613
T174I | 0.0753 | – | – | 0.0518 | – | – | – | – | – | –

Variant | area with substrate ENLAFQS | area with substrate ENLCFQS | area with substrate ENLFFQS | area with substrate ENLIFQS | area with substrate ENLKFQS | area with substrate ENLSFQS | area with substrate ENLVFQS | area with substrate ENLDFQS | area with substrate ENLGFQS | area with substrate ENLHFQS
N175A | 0.0412 | – | 0.088 | – | 0.092 | 0.0559 | – | 0.0585 | – | 0.0541
N177M | 0.0549 | – | 0.122 | – | – | – | – | 0.0586 | – | –
N177T | 0.0765 | – | 0.102 | – | – | – | 0.148 | 0.067 | – | 0.102
N178Q | 0.073 | 0.0596 | 0.103 | – | – | – | – | – | 0.077 | –
N178R | 0.0695 | – | – | 0.099 | 0.0786 | – | – | 0.0623 | – | –
N178S | 0.0855 | – | 0.118 | – | 0.0557 | 0.0704 | – | 0.0699 | – | –
S182E | 0.0499 | – | 0.0854 | – | 0.0541 | 0.0581 | 0.0494 | 0.0666 | – | –
S182H | 0.0659 | – | 0.0623 | – | 0.0438 | – | – | 0.0554 | – | 0.0525
V183G | 0.0627 | – | 0.0674 | 0.0378 | – | 0.0407 | 0.0358 | 0.0476 | – | –
K185L | 0.0657 | – | – | – | – | 0.0363 | – | – | – | 0.0785
F187A | 0.0658 | – | 0.0767 | 0.0738 | 0.0554 | 0.0689 | – | 0.0571 | 0.0679 | 0.059
F187G | 0.0679 | 0.0545 | – | – | 0.0621 | 0.0626 | – | – | 0.0595 | 0.0509
M188R | 0.0706 | – | 0.072 | – | 0.0756 | – | – | 0.0525 | – | –
L190F | 0.0761 | – | – | – | 0.0792 | 0.0728 | – | – | – | –
L190T | 0.0863 | – | – | 0.0931 | 0.0825 | 0.0648 | – | 0.0635 | 0.0634 | 0.0717
N193Q | 0.0573 | – | 0.0842 | – | – | – | – | 0.0738 | – | 0.0651
Q194C | 0.0776 | – | 0.1 | – | – | – | 0.0714 | 0.0837 | – | 0.0584
Q194I | 0.0986 | – | 0.104 | 0.0907 | 0.0752 | 0.0822 | – | – | – | –
E195S | 0.0448 | – | – | – | 0.0628 | – | 0.0877 | 0.0615 | – | –

Same assay, conditions: temperature: 34 °C; time window: 0-4 h after rhamnose induction

Variant | area with substrate ENLLFQS | area with substrate ENLMFQS | area with substrate ENLNFQS | area with substrate ENLPFQS | area with substrate ENLQFQS | area with substrate ENLRFQS | area with substrate ENLTFQS | area with substrate ENLWFQS | area with substrate ENLEFQS
W141F | 0.0791 | 0.0635 | 0.0517 | 0.0564 | 0.0697 | 0.0568 | 0.048 | – | –
K142N | 0.0744 | – | 0.0658 | – | 0.0606 | – | – | 0.076 | –
I145G | – | 0.0649 | – | 0.0475 | 0.0708 | – | – | 0.0632 | –
K148L | – | – | 0.0772 | – | 0.0595 | 0.0586 | – | 0.046 | 0.0614
D149P | – | – | 0.0643 | – | – | – | – | – | –
G153C | – | 0.0644 | 0.0437 | 0.0311 | 0.046 | 0.0503 | – | – | –
P155G | – | 0.0504 | 0.0591 | 0.03 | – | 0.0572 | – | 0.041 | 0.051
S158E | – | – | 0.0319 | – | – | – | – | 0.0566 | 0.0787
S158V | 0.0532 | – | 0.0501 | 0.0516 | 0.0528 | 0.0628 | – | 0.0382 | –
D161G | 0.0724 | – | 0.0529 | 0.0382 | 0.0762 | – | – | – | 0.0595
F163N | 0.0727 | – | – | – | – | – | – | – | –
I164V | 0.0615 | – | – | – | – | – | – | – | –
A170E | – | – | 0.0647 | – | – | – | – | 0.0492 | –
S171Y | 0.0698 | 0.0707 | 0.0644 | 0.0565 | – | 0.067 | – | – | 0.0792
N172Q | 0.0469 | – | – | – | – | – | – | – | 0.0556
T174G | – | – | 0.0647 | 0.063 | – | – | – | – | 0.0598
N175A | 0.0415 | – | – | 0.0623 | – | 0.0802 | – | 0.0691 | 0.0699
N177M | 0.0725 | – | – | – | – | – | 0.076 | 0.0833 | –

Variant | area with substrate ENLLFQS | area with substrate ENLMFQS | area with substrate ENLNFQS | area with substrate ENLPFQS | area with substrate ENLQFQS | area with substrate ENLRFQS | area with substrate ENLTFQS | area with substrate ENLWFQS | area with substrate ENLEFQS
N177T | – | – | 0.0882 | – | 0.103 | – | – | – | 0.0516
N178Q | – | – | – | – | 0.0786 | – | – | 0.0956 | 0.0647
N178R | – | – | 0.0689 | – | – | 0.0702 | – | – | –
N178S | – | 0.0802 | 0.0599 | 0.0642 | – | 0.0825 | – | 0.0535 | –
S182E | 0.0705 | – | 0.0571 | – | 0.0821 | – | 0.0621 | 0.0571 | 0.0626
S182H | – | – | 0.0517 | – | – | 0.0485 | – | – | 0.0553
V183G | 0.0508 | – | 0.0232 | – | – | 0.0488 | – | 0.0343 | 0.0549
K185L | 0.083 | – | – | – | – | 0.082 | – | 0.0714 | 0.0841
F187A | – | – | 0.0533 | – | – | 0.0693 | – | 0.0607 | 0.0551
F187G | 0.0549 | – | 0.0589 | 0.0568 | 0.0714 | 0.0623 | – | – | 0.0642
M188R | 0.0853 | – | 0.0729 | 0.0609 | – | – | – | – | 0.061
L190F | – | – | – | – | – | – | – | 0.063 | –
L190T | – | – | 0.0654 | 0.0661 | 0.0864 | 0.0832 | – | 0.0837 | 0.0542
N193Q | – | 0.0726 | – | 0.112 | – | – | – | – | 0.0588
Q194C | – | 0.0636 | 0.0642 | 0.0504 | 0.0882 | 0.0707 | – | 0.0902 | –
Q194I | – | – | 0.0637 | – | 0.0558 | – | – | 0.0579 | –
E195S | 0.102 | 0.0791 | – | 0.0737 | – | 0.0727 | – | – | 0.0285
